# The campaign covered roughly 310,000 compounds. About 2,200 (0.71%) showed an effect of 50% or more. The effect is printed as a negative number. The list shows a part of the results.
# Target: human ether-à-go-go-related gene (hERG) potassium channel (human, UniProt Q12809)
# Assay: primary screen, population patch clamp on CHO cells stably expressing hERG
# Sequence of human ether-à-go-go-related gene (hERG) potassium channel (Q12809 whole entry, looked up): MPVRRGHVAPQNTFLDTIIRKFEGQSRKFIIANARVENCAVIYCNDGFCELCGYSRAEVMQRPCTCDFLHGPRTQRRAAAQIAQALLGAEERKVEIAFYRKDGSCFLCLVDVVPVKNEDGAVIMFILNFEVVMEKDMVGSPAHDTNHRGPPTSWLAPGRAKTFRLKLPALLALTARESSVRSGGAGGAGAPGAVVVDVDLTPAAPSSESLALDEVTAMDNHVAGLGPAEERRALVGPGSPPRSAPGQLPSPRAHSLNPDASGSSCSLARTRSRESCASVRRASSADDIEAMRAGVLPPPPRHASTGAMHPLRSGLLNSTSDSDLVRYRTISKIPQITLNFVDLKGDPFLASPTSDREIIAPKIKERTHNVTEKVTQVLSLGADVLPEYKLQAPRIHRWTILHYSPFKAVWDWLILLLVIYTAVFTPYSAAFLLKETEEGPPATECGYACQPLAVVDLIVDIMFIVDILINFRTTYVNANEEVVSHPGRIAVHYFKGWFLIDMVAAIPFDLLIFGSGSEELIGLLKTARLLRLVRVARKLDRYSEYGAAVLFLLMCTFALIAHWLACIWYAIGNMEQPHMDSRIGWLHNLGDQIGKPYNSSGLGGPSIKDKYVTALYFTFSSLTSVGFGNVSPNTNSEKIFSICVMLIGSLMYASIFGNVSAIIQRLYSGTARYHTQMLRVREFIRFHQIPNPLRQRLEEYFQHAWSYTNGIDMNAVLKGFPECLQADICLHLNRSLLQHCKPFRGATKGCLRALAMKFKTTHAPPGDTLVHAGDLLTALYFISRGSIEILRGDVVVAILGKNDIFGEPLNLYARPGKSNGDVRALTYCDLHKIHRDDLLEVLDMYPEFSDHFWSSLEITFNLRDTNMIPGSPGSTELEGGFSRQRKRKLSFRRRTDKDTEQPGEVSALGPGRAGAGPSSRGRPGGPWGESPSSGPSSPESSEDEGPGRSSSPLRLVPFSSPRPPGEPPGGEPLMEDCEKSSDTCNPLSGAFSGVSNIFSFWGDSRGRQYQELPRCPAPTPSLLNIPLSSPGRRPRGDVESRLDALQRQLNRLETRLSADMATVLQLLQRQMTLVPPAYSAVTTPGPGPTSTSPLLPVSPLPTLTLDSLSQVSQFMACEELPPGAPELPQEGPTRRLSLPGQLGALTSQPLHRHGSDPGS
row,Compound,"hERG current change (%, negative = inhibition) at 1uM [%]"
1,CCc1ccc(S(=O)(=O)Nc2ccc(Cl)cn2)cc1,15
2,CN(Cc1ccccc1)CC(O)COc1ccc(CNCc2cc3ccccc3s2)cc1 (centres unmarked),-4.6
3,COc1cc2cc(C(C)(C)O)oc(=O)c2cc1OC,12.9
4,Cc1cc(C)n2nc(C(=O)N3CCCC(Nc4ccc(F)c(F)c4)C3)cc2n1 (centres unmarked),4.71
5,c1ccc(Oc2ccc(-c3ccnc4nc(N5CCN(c6ccccc6)CC5)nn34)cc2)cc1,8.46
6,N#CCSc1ccccc1NC(=O)COC(=O)CCN1C(=O)C2CC=CCC2C1=O (centres unmarked),5.69
7,COc1ccc(-c2nnc(SCC(=O)NCCc3ccc(S(N)(=O)=O)cc3)o2)cc1OC,14.8
8,CSc1ccccc1-n1nnnc1SCC(=O)Nc1ccccc1C,-9.11
9,CN(C)CCOc1cccc(Cl)c1.O=C(O)C(=O)O,2
10,Cc1[nH]nc(SCC(=O)N2CCC(C)CC2)c1[N+](=O)[O-],11.6
11,CCC(=O)NCCCNc1nc2c(C)cccc2cc1C#N,11.2
12,CC1CCC(NC(=O)C2CCN(c3c4c(nc5ncnn35)CCC4)CC2)CC1 (centres unmarked),10.8
13,COc1ccc(-n2nc(C(=O)NCC(=O)NC3CCCCCC3)c3ccccc3c2=O)cc1OC,-3.82
14,N#Cc1c2c(nc(N)c1-c1ccccc1)CCCCC2,11.1
15,Cc1cccc(Nc2cc(=O)[nH]c(=O)[nH]2)c1,11.9
16,Cc1cc(OCC(=O)NCC(C)C)cc(C)c1Br,10.6
17,CCCCn1c(SCC(=O)N2CC(C)CC(C)C2)nc2cc(S(N)(=O)=O)ccc21 (centres unmarked),8.72
18,CC(C)Oc1ccc2c3c(c(=O)oc2c1)CCC3,-12.9
19,COc1ccccc1-c1c(C)nn2c(N3CCOCC3)cc(C)nc12,0.407

row,Compound,"hERG current change (%, negative = inhibition) at 1uM [%]"
1,CCOC(=O)C1=C(C)N(CCCC(=O)O)C(=O)NC1c1cccc(OC)c1 (centres unmarked),8.36
2,Cc1ccc(NC(=O)Cn2c(-c3ccc(F)cc3)cnc2SCC(=O)Nc2c(C)cccc2C)cc1,12.1
3,O=C(COC(=O)CCSc1ccccc1)Nc1ccc(F)cc1Cl,7.08
4,CCCc1cnc(N2CCN(C(=O)c3c(-c4ccccc4)noc3C)CC2)nc1,6.99
5,O/N=C(/c1ccccc1)c1cc2cc(Br)cc(Br)c2o1,12
6,O=C1NC2NC(=O)N(C(Cc3ccccc3)C(=O)O)C2N1 (centres unmarked),-5.43
7,CCn1c(-c2ccc(OC)c(OC)c2)n[nH]c1=S,14.2
8,CC(C)C[C@H](NC(=O)c1nc[nH]c1C(=O)NCC(=O)OCc1ccccc1)C(=O)OC(C)(C)C,-2.66
9,Cc1ccc2c(c1)CCCN2C(=O)c1ccc2c(c1)OCO2,14.6
10,Cc1cc(C(=O)COC(=O)c2ccncc2)c(C)n1CCc1ccc(F)cc1,6.81
11,O=C(c1nn2c(C(F)(F)F)cc(-c3ccccc3)nc2c1Cl)N1CCOCC1,8.79
12,CCN(CC)CCCNC(=O)c1sc2ncn(CC(=O)Nc3ccc(C)c(Cl)c3)c(=O)c2c1C,9.82
13,Cc1nc2ccc(NC(=O)NCc3ccco3)cc2s1,20.1
14,CCNC(=S)NNC(=O)c1ccoc1C,5.98
15,CCC(=NCCN1CCOCC1)c1c(O)n(-c2ccccc2C)c(=O)[nH]c1=O,9.31
16,CC(=O)N1CCc2[nH]c3ccc(C)cc3c2C1,4.86
17,COC(=O)C1=NN(C(C)=O)C2(CC(=O)N(c3cc(C)cc(C)c3)C2=O)C1 (centres unmarked),-6.56
18,Cc1cc(=O)oc2cc(OC(=O)c3ccccc3)ccc12,18.6
19,Nc1nc(C(=O)N2CCOCC2)nn1C(=O)c1ccc(Cl)cc1,7.53

row,Compound,"hERG current change (%, negative = inhibition) at 1uM [%]"
1,Cc1onc(-c2ccccc2)c1C(=O)OCc1nnc(-c2ccc([N+](=O)[O-])cc2)o1,-51.2
2,CCN(CC(=O)NCc1ccc(Cl)cc1)C(=O)NCc1ccc(Cl)cc1,-54.1
3,COc1cc(-c2nnc(COc3ccc4ccccc4c3)o2)cc(OC)c1OC,9.34
4,CNC(=O)COC(=O)/C=C/c1ccco1,5.71
5,Cc1ccc(NC(=O)COc2coc(CN3CCN(Cc4ccccc4)CC3)cc2=O)cc1,-44.4
6,CCOC(=O)C1=C(CS(=O)(=O)c2ccc(C)cc2)NC(=O)NC1c1cc(OC)c(OC)c(OC)c1 (centres unmarked),3.43
7,CN(CCc1cnn(C)c1)Cc1cn(C)nc1-c1ccccc1F,0.587
8,O=C(CCn1cnc2ccccc21)N/N=C/c1ccc(O)cc1,11.5
9,O=C(Nc1ccccc1F)c1ccc2nc(N3C(=O)CCC3=O)sc2c1,13.2
10,Cc1ccc(C)c(-c2nnc(NC(=O)Cc3ccccc3)o2)c1,11.1
11,COCCNc1nnc(SCC(=O)c2ccc3c(c2)OCO3)s1,2.85
12,Cc1c(Cl)c([N+](=O)[O-])nn1CC(=O)N1CCN(C23CC4CC(CC(C4)C2)C3)CC1,11.3
13,COc1ccc(N2C(=O)CCC(C(=O)c3ccccc3)=C2C)cc1,2.53
14,COc1ccc(NC(=O)N2CCC(C(=O)c3ccc4c(c3)OCCO4)CC2)cc1,10
15,COc1ccc(N2CCN(C(c3cc4cc(C)ccc4[nH]c3=O)c3nnnn3Cc3ccccc3)CC2)cc1 (centres unmarked),8.29
16,O=C(NCc1ccc2c(c1)OCO2)C(=O)NCC(c1ccco1)N1CCN(c2ccccc2)CC1 (centres unmarked),13.3
17,COc1ccc(NC(=O)CSc2nc3ccccc3nc2N2CCCC2)c(OC)c1,15.5
18,Cc1cc(C)cc(NC(=O)COC(=O)c2n[nH]c3ccccc23)c1,4.52
